# In the BET-seq Pho4 binding data (Le et al. 2018):
# This is one part of the list. Values were computed here from the reads of four pooled replicates and scatter widely.
# Molecular target: T1, Pho4 (S. cerevisiae) (UniProt P07270)
# T1 sequence: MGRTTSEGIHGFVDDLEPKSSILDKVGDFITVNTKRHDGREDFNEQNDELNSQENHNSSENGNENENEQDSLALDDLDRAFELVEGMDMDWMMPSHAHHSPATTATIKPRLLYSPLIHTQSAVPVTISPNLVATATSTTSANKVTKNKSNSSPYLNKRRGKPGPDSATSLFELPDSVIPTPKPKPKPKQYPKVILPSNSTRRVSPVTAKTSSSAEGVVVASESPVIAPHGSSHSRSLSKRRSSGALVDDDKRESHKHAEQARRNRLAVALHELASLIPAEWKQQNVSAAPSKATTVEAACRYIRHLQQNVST
# Experiment: relative binding free energy (BET-seq); higher = weaker binding
# Settings: reference: library average
row,Sequence,relative binding free energy [kJ/mol]
1,ATGGTCACGTGGCAGA,0.293
2,CGGAACACGTGTGGTA,-0.126
3,AGTTTCACGTGTACAT,0.753
4,AGGAGCACGTGATGTA,0.209
5,AGGATCACGTGTGGGC,0.879
6,CTAGCCACGTGGGGAG,-0.711
7,ATGTTCACGTGGAGTC,1.51
8,GGAATCACGTGGTGTT,0.879
9,GTGAGCACGTGGGAGT,-0.0837
10,GGTTACACGTGTTATT,0.879
11,TGGCGCACGTGTTGGG,-0.126
12,TAGCGCACGTGTAGTT,0.209
13,TATTTCACGTGGAACT,1.92
14,TCGGGCACGTGGTTTA,0.0418
15,TTTGGCACGTGAGGTT,0.502
16,ACTTTCACGTGGAGAG,1.46
17,ATTGGCACGTGCGGCA,-0.418
18,GGCTTCACGTGATCGG,1.51
19,TGGACCACGTGGTTAG,-0.251
20,GTGGGCACGTGCATGC,-0.837
21,TCATGCACGTGGTTGG,-0.46
22,TTACTCACGTGTATAG,0.879
23,TTTGGCACGTGAACAT,0.544
24,CGTCGCACGTGTGCGT,0.377
25,TTCGACACGTGGAGTT,0.0418
26,TGTGACACGTGCCGTG,-0.167

row,Sequence,relative binding free energy [kJ/mol]
1,GTTTGCACGTGTGGTG,0.669
2,ATCGGCACGTGCTGGG,-0.544
3,AGTGTCACGTGAAGTT,1.63
4,TTGGGCACGTGGGCGT,-0.711
5,GGGTTCACGTGGTACT,1.8
6,ATTGGCACGTGCTTGA,-0.335
7,TCTGACACGTGTTTTG,-0.0418
8,TGTTTCACGTGTGCAA,0.92
9,TAATGCACGTGGATGA,0.209
10,AAATTCACGTGTCGTT,1
11,GGGATCACGTGGGACG,0.209
12,AGATGCACGTGGGGAC,-0.837
13,CACGGCACGTGGTGGT,-1.21
14,TATATCACGTGAGCTG,0.837
15,ATTAGCACGTGTAAGC,0.628
16,TTATACACGTGGCGGG,-0.377
17,TATCTCACGTGTAAGG,1.26
18,TCTGGCACGTGTGATG,0.628
19,GTAGCCACGTGGGGTG,-0.628
20,TGCTTCACGTGCAGGT,0.879
21,CTGTGCACGTGGGTGT,-1
22,CGAGGCACGTGGTCGG,-0.544
23,GGCGGCACGTGTGGGT,-0.0418
24,TTAATCACGTGGGCAT,-0.0418
25,GGGAGCACGTGTGGGC,0.126
26,GACGACACGTGTGGGG,0.46

row,Sequence,relative binding free energy [kJ/mol]
1,AGATGCACGTGATTAA,0.669
2,TTTTACACGTGGCCGT,0.46
3,GGCGACACGTGGGGAG,0.628
4,TAGAACACGTGGGATA,-0.167
5,AATTACACGTGTGTCT,0.879
6,TTTATCACGTGATCTG,0.669
7,TTATTCACGTGGTAGG,0.753
8,AGGTACACGTGTTGCT,0.377
9,AGGATCACGTGGGCAG,0.167
10,CTGTGCACGTGGTAAG,-0.669
11,TATGGCACGTGGGTTA,-0.837
12,ACTTGCACGTGAAGTG,1.42
13,ATCAGCACGTGTTGTT,-0.167
14,GTCATCACGTGTGTGA,0.418
15,GGGGACACGTGTATGT,0.126
16,AGGTTCACGTGTTATA,0.711
17,GTGGTCACGTGTCTAT,0.795
18,ACTATCACGTGTATGT,0.502
19,ATTAGCACGTGTTAAG,-0.0837
20,GGGTGCACGTGACTGC,0.879
21,AGCTCCACGTGGGGGT,-0.879
22,GAAAGCACGTGGGGCG,-0.544
23,TTTGACACGTGGTGGG,0.0837
24,TATTGCACGTGATAGC,0.46
25,TGTCACACGTGGGGAC,0
26,TTAGCCACGTGTTTGA,-0.46

row,Sequence,relative binding free energy [kJ/mol]
1,GTACGCACGTGTAAGG,-0.251
2,AGTGGCACGTGAAATT,1.21
3,GAAGTCACGTGAGGTC,1.76
4,GGTGTCACGTGGGGCT,0.0837
5,CCGGGCACGTGTTGTG,-0.502
6,CTTTGCACGTGATTGA,0
7,GTTTACACGTGGAATG,0.377
8,ATGTTCACGTGTGGTC,0.962
9,TGCACCACGTGGGTTG,-1.21
10,GAGTACACGTGTAAGG,0.502
11,ATTTTCACGTGCTCTG,0.753
12,CATGACACGTGGGCGT,-0.335
13,CACTACACGTGTTGTT,0.753
14,GAATGCACGTGTGGGA,0.795
15,TGCGGCACGTGGATTA,0.251
16,TTTAGCACGTGTCGAG,0.126
17,GATTTCACGTGGTGTC,0.711
18,ATTGACACGTGACTGG,0.335
19,TGTACCACGTGGGGGA,-0.795
20,AGGGGCACGTGAACGT,0
21,TTTGCCACGTGAGGCG,0
22,GAATTCACGTGAGGTA,1.67
23,GGTGTCACGTGGCCCG,-0.0837
24,GTTTGCACGTGGCATA,-0.377
25,TCTTTCACGTGGGTCG,0.669
26,TGGGCCACGTGTGATA,-0.0418

row,Sequence,relative binding free energy [kJ/mol]
1,GTTTGCACGTGGGTAT,0.126
2,ATGTTCACGTGATTTA,1.8
3,AGGGCCACGTGGGAAG,-0.753
4,TGGTCCACGTGATTTG,1.21
5,CTTGTCACGTGTATGG,0.293
6,TGGGTCACGTGCGATA,0.293
7,GTTAACACGTGGGTCA,-0.251
8,TGGTGCACGTGGTCCT,-0.711
9,CAGGGCACGTGTAGCG,-0.251
10,ATTAGCACGTGCGGGT,-0.544
11,TGAGGCACGTGCGGTC,-0.795
12,TAGTTCACGTGCTGGA,1.05
13,GTTTTCACGTGTTGCA,1.42
14,CAATTCACGTGTTATG,1.09
15,GCAATCACGTGTGTGT,0.962
16,GATGACACGTGGGAGG,0.126
17,TTTAGCACGTGTGGAA,-0.209
18,GGTTGCACGTGTTAGG,0.795
19,TTGTGCACGTGGATGC,-0.628
20,TCGGGCACGTGCGTGA,-0.669
21,TTCTGCACGTGTTTCG,-0.0418
22,CTGAGCACGTGGGGGT,-1.21
23,GGGATCACGTGAGGTG,1.13
24,GTTGACACGTGGCAGG,-0.46
25,ATGCACACGTGGGATT,0.46
26,GGGGACACGTGAGCGT,0

row,Sequence,relative binding free energy [kJ/mol]
1,TTGATCACGTGCATTA,1.05
2,AATTGCACGTGGGCTT,-0.544
3,AAATTCACGTGCGTGG,0.92
4,TAGGACACGTGGTAGT,-0.586
5,AACGTCACGTGTGGGA,0.544
6,CTGTTCACGTGTATTG,1.17
7,ATGTGCACGTGTTGCA,-0.753
8,GACGTCACGTGAAGGT,1.46
9,GGGTGCACGTGGACGG,0.418
10,GTTGACACGTGGACTT,0.502
11,AGGATCACGTGCGGTC,1
12,ACTAGCACGTGAGGGT,0.753
13,AGTATCACGTGATGTA,0.46
14,ATCGGCACGTGATGGA,0.335
15,AGTGGCACGTGAAGAG,1.21
16,TGGGACACGTGGCGCG,-0.502
17,AGTGACACGTGCAGTG,-0.711
18,TGCTTCACGTGGGATC,1.51
19,GAGTTCACGTGTATTT,0.753
20,GTGCGCACGTGGGGTT,-1.3
21,GGACTCACGTGGTGAT,1.17
22,TACTGCACGTGGGTGA,-0.377
23,GTAAGCACGTGATGTG,0.126
24,TAATTCACGTGTTTTA,1.17
25,TGCCTCACGTGGTGAG,0.962
26,GGTGTCACGTGGCTCT,0.46

row,Sequence,relative binding free energy [kJ/mol]
1,GTCTGCACGTGGGATG,0.209
2,GTATTCACGTGATGTG,1.38
3,GGAGCCACGTGTAGTT,0.377
4,GTGGACACGTGGGGCG,-0.293
5,GATGGCACGTGAGACG,0.753
6,ATGTACACGTGGTCAT,0.0418
7,ATTAGCACGTGTAGGG,-0.418
8,AAGATCACGTGTTAGT,0.669
9,TGATTCACGTGCGTCG,1.38
10,TCGTTCACGTGGCGGC,1.8
11,GTTTGCACGTGTCGTC,0.418
12,ACGTGCACGTGGGAGG,-0.586
13,GTGCTCACGTGTGGGG,0.753
14,GAGGGCACGTGGCTAG,-0.586
15,CTGTTCACGTGTGAGG,1.84
16,ATGGGCACGTGAAGAT,0.711
17,GGTGTCACGTGTCATG,0.335
18,GGAGTCACGTGATGTC,1.59
19,GGTAACACGTGCTGGT,-0.251
20,TTATACACGTGGTGCT,0.0837
21,TTGTCCACGTGTATGG,0.586
22,ACAGGCACGTGTGGAT,0.0418
23,AGATGCACGTGGTGCG,-0.962
24,TGGAACACGTGGAGTA,0
25,TATGTCACGTGGCTCG,0.0418
26,AATTGCACGTGGATCG,0

row,Sequence,relative binding free energy [kJ/mol]
1,TAGTTCACGTGTTGCT,1.09
2,AAATACACGTGTTAGG,1
3,TGAAGCACGTGTTGAG,-0.167
4,CTGGGCACGTGTGGTC,-0.209
5,TACGTCACGTGGGCGA,0.209
6,AGATACACGTGGTTAG,0.335
7,GGTGACACGTGGTAGC,-0.502
8,ATTTACACGTGTTGCG,0.544
9,TGTAACACGTGGTGGT,-0.0418
10,GCGTACACGTGTTGTT,0.502
11,GTTTGCACGTGACGTG,0.544
12,AGAGTCACGTGGGGTC,-0.0418
13,GGGCGCACGTGGATGC,0.377
14,ACTTTCACGTGCGGGG,0.753
15,TGGGACACGTGATGAT,0.962
16,GGTCTCACGTGTTGTC,1.09
17,CAAGTCACGTGTTTGT,0.251
18,TATGTCACGTGAGGCC,1.38
19,GAGGCCACGTGTGGGA,0.167
20,CGTGGCACGTGTGTTA,-0.46
21,AAAAGCACGTGTTTTG,-1.09
22,TGCCGCACGTGGGTGG,-1.38
23,AGGTGCACGTGGTCTG,-0.669
24,AGCTGCACGTGGGATG,-1.09
25,ATGAGCACGTGTGTAA,-0.209
26,GAAATCACGTGGGTTT,0.879

row,Sequence,relative binding free energy [kJ/mol]
1,TTAAGCACGTGTTGGG,-0.46
2,GGATACACGTGTTGCG,0.126
3,TTATACACGTGTTGAG,0.418
4,ATTCACACGTGTTTTA,0.209
5,TTGGACACGTGTATGC,0.335
6,AGTATCACGTGGGGCC,-0.126
7,ATTAGCACGTGGGGAG,-0.795
8,AGGGACACGTGCGGCG,-0.0837
9,GGATGCACGTGTTTTT,0.795
10,TGGTTCACGTGGTTGA,1.13
11,TTCTTCACGTGGTATG,0.753
12,TTTAGCACGTGTAGCT,0.209
13,TGTGGCACGTGCTTGC,-0.92
14,GTTGGCACGTGACTGG,0.669
15,GGTTACACGTGGCTCT,0.669
16,TTTGGCACGTGTTGCC,-0.209
17,TTAAGCACGTGGGTGA,-1
18,GTGGTCACGTGTTTGG,0.669
19,ACAAGCACGTGGTAGG,-0.46
20,TGGTACACGTGTCAGT,0.586
21,TTTGACACGTGGTTGC,0.0418
22,TGAAACACGTGATTTT,0.711
